Results reported in US9816991B2, “Diagnostic peptides for lyme disease” (Biopeptides Corp., priority 2012, dated 2017).
Not every detail of the peptide structures is certain; ends, links or a residue may be inferred. Ends that are not written are not given here.

Experiments:
[1] = test system: human IgG+IgM serum antibodies; test: OppA2 peptide ELISA; format: binding; settings: for binding of antibodies present in RPR+ serum: 26 RPR+ sera
Method: 96-well plates (Nunc Maxisorp) were coated with 10 μg/mL peptide, diluted in 0.1M carbonate-bicarbonate buffer, pH 9.4 (50 μL per well), for 1 hour at room temperature. Blocking buffer 1% bovine serum albumin (BSA) in PBS was added to the wells (250 μL/well) and incubated overnight at 4° C. Wells were washed three times with PBS containing 0.05% Tween 20 (PBS-T) and incubated for 2 hours at room temperature with human samples diluted 1:100 in PBS-1% BSA. Each plate included samples from patients and healthy donors, and all samples were assayed in triplicate. After washing, wells were incubated for 1 hour at RT with a 1:15,000 dilution of HRP-conjugated secondary antibody against human IgG+IgM. Reactions were developed for 30 minutes with 3,3′,5,5′-tetramethylbenzidine (TMB) in the dark at room temperature and the reaction was stopped by the addition of 2N H2SO4. Optical densities were determined at 450 nm and 570 nm wavelengths using a SpectraMax Plus plate reader (Molecular Devices). The cutoff for seropositivity was defined as the mean optical density (OD) of the healthy control samples plus two standard deviations (SD).
OppA2 peptides react specifically with antibodies from Lyme disease patients. The nine peptides were further screened by ELISA using serum or plasma obtained from 104 patients with physician-diagnosed Lyme disease. All patients presented with one or more EM. Control sera was obtained from 45 healthy donors residing in a region of the United States non-endemic for LD, New Mexico. All peptides were incubated with serum in triplicate, and results were validated in two independent experiments. For each peptide, the threshold value for immunoreactivity was defined as the mean optical density (OD) value plus two standard deviations (SD) of results obtained using healthy donor sera. […] OppA2 (191-225) and OppA2 (381-400) were detected by only 2.2% and 6.7%, respectively, of the healthy donor samples.

[2] = test system: sera containing antibodies against B. burgdorferi sensu stricto; test: ProArray Ultra peptide microarray epitope mapping of OspC type K; format: binding, human; settings: of the eight Lyme serum samples
[3] = Control sera, Healthy blood donors
[4] = Lyme Disease sera, Blood culture negative (localized)
[5] = Lyme Disease sera, Blood culture positive (disseminated)
[6] = Lyme Disease sera, EM positive (1st visit)
[7] = Lyme Disease sera, Elisa Positive

Row | Sequence | binding of antibodies present in RPR+ serum ([1]; in words) | Antibody positivity, % positive [1, 3] [%] | Antibody positivity, N° positive/Total [1, 3] | Antibody positivity, % positive ([1]; Control sera, RA) [%] | Antibody positivity, N° positive/Total ([1]; Control sera, RA) | Antibody positivity, % positive ([1]; Control sera, Syphilis (RPR+)) [%] | Antibody positivity, N° positive/Total ([1]; Control sera, Syphilis (RPR+)) | Antibody positivity, % positive [1, 4] [%] | Antibody positivity, N° positive/Total [1, 4] | Antibody positivity, % positive [1, 5] [%] | Antibody positivity, N° positive/Total [1, 5] | Antibody positivity, % positive [1, 6] | Antibody positivity, N° positive/Total [1, 6] | Antibody positivity, % positive [1, 7] | Antibody positivity, N° positive/Total [1, 7] | Antibody positivity, % positive ([1]; Lyme Disease sera, Wisconsin) | Antibody positivity, N° positive/Total ([1]; Lyme Disease sera, Wisconsin) | further results
1 | IYFYAFNTHIKPLDN [OppA (286-300), IYFYAFNTHIKPLDN] | did not bind | 4.4 | 2/45 | 0 | 0/30 | 0 | 0/26 | 0 | 0/13 | 20 | 2/10 | (44.5) % | 45/104 | (20) % | 7/35 | (78.3) % | 36/46 | Antibody positivity, % positive ([1]; Lyme Disease sera, EM positive (1st visit), listed as OppA2 (286-300)): 44.5%
2 | KKICEFIQNQWKKNLNIDVE [OppA (381-400)] | – | 6.7 | 3/45 | 0 | 0/30 | 11.5 | 3/26 | 0 | 0/13 | 40 | 4/10 | (61.4) % | 62/104 | (48.5) % | 17/35 | (82.6) % | 38/46 | Antibody positivity, % positive ([1]; Lyme Disease sera, EM positive (1st visit), listed as OppA2 (381-400)): 61.4%; mean reactivity with disseminating sera vs normal control samples / difference between patient groups ([1]; mean optical density, in words): significantly higher
3 | MTLFLFISCNNSGKD [peptide 1, MTLFLFISCNNSGKD] | – | – | – | – | – | – | – | – | – | – | – | – | – | – | – | – | – | serum samples bound in the epitope mapping [2]: more than 50%
4 | SDYYSSAVNAIYFYA [OppA (276-290), SDYYSSAVNAIYFYA] | – | 4.4 | 2/45 | 0 | 0/30 | 3.8 | 1/26 | 0 | 0/13 | 20 | 2/10 | (37.6) % | 38/104 | (17.1) % | 6/35 | (65.2) % | 30/46 | Antibody positivity, % positive ([1]; Lyme Disease sera, EM positive (1st visit), listed as OppA2 (276-290)): 37.6%
5 | LAEAGYPNGNGFPILKLKYN [OppA (356-375)] | did not bind | 2.2 | 1/45 | 0 | 0/30 | 0 | 0/26 | 0 | 0/13 | 0 | 0/10 | (45.5) % | 46/104 | (25.7) % | 9/35 | (80.4) % | 37/46 | Antibody positivity, % positive ([1]; Lyme Disease sera, EM positive (1st visit), listed as OppA2 (356-375)): 45.5%
